The labels stand for the following.
B1: DNM2_Y626_L621P (peptide)
chain: PRAGVYPEKDQ
B2: DES_Y331_H326R (peptide)
chain: RQIQSYTCEID
B3: DDX49_Y223_R222H (peptide)
chain: QLDQHYLLVPE
B4: DHCR7_Y382_C380S (peptide)
chain: VIESSYTSADG
B5: DNM2_Y626_P627R (peptide)
chain: LRAGVYREKDQ
B6: DLG1_Y895_P899L (peptide)
chain: EQSGSYIWVLA
B7: DDR2_Y741_YF (peptide)
chain: FSGDFYRIQGR
B8: DDR2_Y736_Y740C_YF (peptide)
chain: MSRNLYSGDCF
B9: DDR2_Y741 (peptide)
chain: YSGDYYRIQGR
B10: DEGS1_Y284 (peptide)
chain: IAAEYYDNLPH
B11: DNM2_Y563_E560K (peptide)
chain: EKKKKYMLPLD
B12: DNAH5_Y596 (peptide)
chain: LILENYGADID
B13: DES_Y388_L385P (peptide)
chain: RHPREYQDLLN
B14: DNMT3B_Y404_C403W (peptide)
chain: LKTNWYNNGKD
B15: DNAJC13_Y1131_N1135S (peptide)
chain: FFIMMYTGSSV
B16: DLG1_Y349_S347N (peptide)
chain: GDNNIYVTKII
B17: DHCR24_Y299_YF (peptide)
chain: NSIGNYFKPWF
B18: DNAI2_Y7_E2K (peptide)
chain: KIVYVYVKKRS
B19: DNAI2_Y5_YF (peptide)
chain: GMEIVYVFVKK

This is one part of the list. No stated cut-off is given here; in the data, active = 3.2 or more and inactive = the rest. The signal is at background level for most entries.
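Further: displayed peptides selected on beads carrying the immobilized SH2 domain, with library peptides lacking any tyrosine serving as negative controls.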

For one test, the target named is SHP2 C-SH2 domain E139D. The experiment in a line: enrichment score (SH2-bound / input frequency) (ratio); bacterial display of known human phosphotyrosine sites (pTyr-Var adds point mutants) read by sequencing; higher = stronger binding; tyrosines were phosphorylated by kinases first. Conditions: peptide library: pTyr-Var.
In the case of B1, the enrichment score was inactive: 0.881.

As to B2, the enrichment score was inactive: 1.02.

With B3, the enrichment score is inactive: 0.724.

As for B4, the enrichment score was inactive: 0.573.

For the molecule B5, the enrichment score is inactive: 0.719.

As to B6, the enrichment score was inactive: 0.655.

In the case of B7, the enrichment score is inactive: 0.585.

Turning to B8, the enrichment score is inactive: 0.842.

As for B9, the enrichment score was inactive: 0.474.

Regarding B10, the enrichment score is inactive: 0.994.

With B11, the enrichment score is inactive: 0.597.

For the molecule B12, the enrichment score was inactive: 0.7.

For the molecule B13, the enrichment score was inactive: 0.619.

For B14, the enrichment score was inactive: 1.1.

For B15, the enrichment score is inactive: 0.736.

Take B16: the enrichment score was inactive: 0.771.

As for B17, the enrichment score is inactive: 2.12.

Regarding B18, the enrichment score is inactive: 0.561.

As for B19, the enrichment score is inactive: 2.49.

The next test deals with SHP2 C-SH2 domain wild-type. The test is described as above. To be noted: peptide library: pTyr-Var.
Take B1: the enrichment score was inactive: 0.799.

With B2, the enrichment score is inactive: 0.583.

Take B3: the enrichment score is inactive: 0.673.

As to B4, the enrichment score was inactive: 0.436.

B5: the enrichment score is inactive: 0.42.

For the molecule B6, the enrichment score is inactive: 0.579.

On to B7, for which the enrichment score is inactive: 0.454.

As for B8, the enrichment score is inactive: 0.96.

For the molecule B9, the enrichment score is inactive: 0.603.

On to B10, for which the enrichment score was inactive: 0.752.

For the molecule B11, the enrichment score was inactive: 0.878.

Turning to B12, the enrichment score is inactive: 0.541.

For the molecule B13, the enrichment score is inactive: 0.57.

For B14, the enrichment score was inactive: 0.884.

With B15, the enrichment score is inactive: 1.14.

Regarding B16, the enrichment score is inactive: 0.74.

Regarding B17, the enrichment score is active: 3.46.

B18: the enrichment score is inactive: 0.513.

For B19, the enrichment score is inactive: 2.03.

In the next test the target is SHP2 N-SH2 domain L43F. Described as above. To be noted: peptide library: pTyr-Var.
As to B1, the enrichment score was inactive: 0.769.

In the case of B2, the enrichment score is inactive: 0.743.

For the molecule B3, the enrichment score was inactive: 0.991.

With B4, the enrichment score is inactive: 0.647.

On to B5, for which the enrichment score is inactive: 1.25.

B6: the enrichment score was inactive: 0.646.

On to B7, for which the enrichment score is inactive: 0.512.

As for B8, the enrichment score is inactive: 0.624.

For the molecule B9, the enrichment score was inactive: 0.586.

For B10, the enrichment score is inactive: 0.852.

As for B11, the enrichment score is inactive: 0.755.

For the molecule B12, the enrichment score was inactive: 0.967.

For B13, the enrichment score was inactive: 0.578.

For the molecule B14, the enrichment score is inactive: 0.728.

On to B15, for which the enrichment score was inactive: 1.1.

On to B16, for which the enrichment score is inactive: 0.69.

In the case of B17, the enrichment score is active: 10.8.

Regarding B18, the enrichment score was inactive: 0.598.

For the molecule B19, the enrichment score was inactive: 1.8.

The target of another test is SHP2 N-SH2 domain T42A. The description is as above. Conditions: peptide library: pTyr-Var.
As to B1, the enrichment score was inactive: 0.914.

As to B2, the enrichment score was inactive: 0.559.

Turning to B3, the enrichment score was inactive: 0.565.

Regarding B4, the enrichment score is inactive: 0.628.

For the molecule B5, the enrichment score was inactive: 0.345.

With B6, the enrichment score was inactive: 0.597.

In the case of B7, the enrichment score was inactive: 0.533.

Consider B8, for which the enrichment score was inactive: 0.586.

For B9, the enrichment score is inactive: 0.711.

In the case of B10, the enrichment score is inactive: 0.895.

In the case of B11, the enrichment score is inactive: 0.638.

Regarding B12, the enrichment score is inactive: 0.575.

As to B13, the enrichment score is inactive: 0.572.

Take B14: the enrichment score was inactive: 0.719.

On to B15, for which the enrichment score was inactive: 0.909.

Take B16: the enrichment score is inactive: 0.58.

Regarding B17, the enrichment score is active: 13.8.

Turning to B18, the enrichment score is inactive: 0.453.

As for B19, the enrichment score was inactive: 1.37.

The target in another test is SHP2 N-SH2 domain T52S. Described as above. To be noted: peptide library: pTyr-Var.
As to B1, the enrichment score was inactive: 0.491.

On to B2, for which the enrichment score is inactive: 1.03.

For the molecule B3, the enrichment score is inactive: 0.753.

As for B4, the enrichment score was inactive: 0.474.

Consider B5, for which the enrichment score was inactive: 0.748.

As for B6, the enrichment score was inactive: 0.558.

Turning to B7, the enrichment score is inactive: 0.539.

In the case of B8, the enrichment score was inactive: 0.789.

For the molecule B9, the enrichment score is inactive: 0.441.

For B10, the enrichment score was inactive: 0.783.

On to B11, for which the enrichment score is inactive: 0.677.

Consider B12, for which the enrichment score was inactive: 0.743.

For B13, the enrichment score is inactive: 0.451.

With B14, the enrichment score is inactive: 0.868.

Turning to B15, the enrichment score was inactive: 1.05.

As to B16, the enrichment score is inactive: 0.574.

On to B17, for which the enrichment score is active: 13.

Regarding B18, the enrichment score was inactive: 0.482.

Consider B19, for which the enrichment score is inactive: 1.99.

The next test concerns the target SHP2 N-SH2 domain wild-type. The test is described as above. Conditions: peptide library: pTyr-Var.
As for B1, the enrichment score is inactive: 0.832.

With B2, the enrichment score was inactive: 0.998.

As to B3, the enrichment score is inactive: 1.06.

B4: the enrichment score was inactive: 0.665.

B5: the enrichment score was inactive: 0.421.

As to B6, the enrichment score was inactive: 0.664.

For the molecule B7, the enrichment score was inactive: 0.539.

With B8, the enrichment score is inactive: 0.785.

Consider B9, for which the enrichment score was inactive: 0.668.

As for B10, the enrichment score was inactive: 0.874.

B11: the enrichment score was inactive: 0.808.

As to B12, the enrichment score is inactive: 0.75.

Regarding B13, the enrichment score is inactive: 0.661.

As to B14, the enrichment score is inactive: 1.38.

For the molecule B15, the enrichment score was inactive: 1.16.

Regarding B16, the enrichment score was inactive: 0.966.

In the case of B17, the enrichment score is active: 5.06.

As for B18, the enrichment score is inactive: 0.603.

As for B19, the enrichment score is inactive: 1.85.

For the origin of these results see the supplement of paper PMC10369915.
